This is one part of the list.
test system: PF3D7_0420300 AP2 domain 1 (GST-tagged); assay: gcPBM binding intensity (ln(normalized median fluorescence intensity)); higher = stronger DNA binding
Method in brief: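 For binding intensity, the highest Masliner-normalised natural-log median intensity across replicate spots of either probe orientation was taken. Protein bound to the array was stained with Alexa488 anti-GST antibody and scanned at 488 nm. The protein, GST-tagged P. falciparum DNA-binding domains from E. coli at about 25 μg on average, had been applied for 1 h to an Agilent 4 × 180k array of primer-extended double-stranded 36-bp intergenic genomic probes and negative controls.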

Row | Sequence | gcPBM binding intensity (ln)
1 | TATTTTTTTAGATATACATGCAAAAACAGAAGAAAT [TGCATGCA_site283] | 9.34
2 | AATATAAGGATATATACACACATAAATACATACATA [CACACA_site7859] | 9.89
3 | TCAACATTCATTGGAAGTACTCACTCCCATATAATA [XGTACX_site5211] | 8.97
4 | TGAACTTTAAACCCTGAACACACACTAATACACCCA [CACACA_site7970] | 9.77
5 | AATATGTCATATATGTGTACATATGCACAGATATTA [XGTACX_site951] | 9.15
6 | ATAAAAAGAAATCCAATACACACCTTCAAAATGGGT [CACACA_site1622] | 9.69
7 | TAATAAATAAATGACACACACACACCCAAAAAAAAA [CACACA_site2623] | 10.2
8 | TTATTAACCTAAATTAGTACATATAATATAAAAAAT [XGTACX_site8661] | 9.18
9 | AGCTATGTATTCTACACACACATACACCCATATATA [CACACA_site5827] | 10.1
10 | AAAATATTATCTAATTGTACTTATATAACTATATAT [XGTACX_site5699] | 9.21
11 | TTGAAATGCATGAACACACACAGCTATAAATGCATA [CACACA_site968] | 9.49
12 | AAATTTATGAACCTAGTGCAGAAATTAAAAAGATGA [GTGCAC_site9396] | 9.38
13 | ATACTAAGGAGAAAAGAAAAGTGAATTTATTCTATA [CACACA_negctrl_site1792] | 9.03
14 | TTAAATACTAAAAAGTGTACACATACATAAAAAATT [XGTACX_site6261] | 9.49
15 | ATTATGTTAATAATATGTACATATATCTACATATAT [XGTACX_site7978] | 9.16
16 | ATTATTTTGTTTATTACATGCAGGTGTATATTACAG [TGCATGCA_site723] | 9.36
17 | GAGTATATTTATATTGCACACAATTTTTTTATTTTT [CACACA_site2644] | 9.54
18 | CATAAATGTCTCACATGTACATATGCATTTTTAAAA [XGTACX_site3194] | 9.06
19 | TATATATAATATTGCACACAAAATTAAAAGTAAATA [CACACA_site19] | 9.46

Row | Sequence | gcPBM binding intensity (ln)
20 | CAACTCTTATTTAATTATATGAATTAATTTATATGA [CACACA_negctrl_site200] | 8.95
21 | TGCATAAATTTATGCACACATAAAAAAAAAAAAAAA [CACACA_site2923] | 9.14
22 | AATATCTTAGTGGATACACACATATAAATGTGTATT [CACACA_site6367] | 9.5
23 | CTTTCAATTTTTTTCTGTACCAATAAAAAATATAAA [XGTACX_site2120] | 8.48
24 | TTGAGCATAAAATTTGGAAACCTCAATCGGACAAAA [GTGCAC_negctrl_site84] | 9.13
25 | GATTACAAAAAAAATACACACAAAAAAAAAAAGGAA [CACACA_site2096] | 9.99
26 | ATATTTATGTAAAAAAGTACATACAATTATATATGT [XGTACX_site3750] | 9.22
27 | ATAATGTTTTATAATACACACATTATATATATAAAT [CACACA_site6101] | 9.38
28 | ACATGAATTTATATGTGTACTAACTATATTCTTAAA [XGTACX_site5966] | 9.1
29 | ATGAATAAATAGGTCACACACAAATATTTATAAATA [CACACA_site7186] | 9.86
30 | TATCTGTATTTATTCACACATATAAAATATAATTAA [CACACA_site5560] | 9.08
31 | TATATACAATATAGGTGTACATTTTTTTATCTATTT [XGTACX_site8431] | 9.32
32 | TCTGGCATATAATATTGTACACATATATATATATAT [XGTACX_site8182] | 9.61
33 | AACGGGGGTAGTTTTATGCACACGTTTATTAATGCT [CACACA_site3173] | 9.59
34 | GATATGAATATAGGTTGTACTATATATAAAGTATGT [XGTACX_site1877] | 9.35
35 | AAAGTACAAGTATAATCACACGTGTCTATTATATAC [CACACA_site4507] | 9.45
36 | TGTTTCTAAAAAAAAGGTACACATATATATAATATA [XGTACX_site3217] | 9.11
37 | GTAACCCACCAAAATGCACACATTAAAAAAAAAAAA [CACACA_site1046] | 9.2
38 | AAACCGTGGGAGCACACACACACACGCGCACATATA [CACACA_site6288] | 10.1

Row | Sequence | gcPBM binding intensity (ln)
39 | ATAGTTTATACAAATAGTACGCACAAAAAAAAATAA [XGTACX_site6727] | 9.29
40 | TTTATCAAAATAAATGCACACAAATTGCACATATCT [CACACA_site8281] | 9.27
41 | TATATATTATATATATGTACATATTTATTTTATTTT [XGTACX_site6989] | 9.13
42 | AATACCGGAAAGCAAACACACATTTGAAAACCATAA [CACACA_site7761] | 9.75
43 | AAAAAATTTCAAATGACATAATGTAATTTCCCTTTT [GTGCAC_negctrl_site673] | 9.04
44 | TATATATAAACAAAATGTACATATTTGAGATACCCT [XGTACX_site2195] | 9.34
45 | ACACATACATACATATGTACATATATACATATATAC [XGTACX_site5559] | 9.48
46 | TTTTTATTTTTTATGTAATTTAAATAATTATTCAAA [CACACA_negctrl_site1549] | 8.95
47 | AGTAAACGATGATGTTGTACAAAAAGGATAATTTAA [XGTACX_site6698] | 9.43
48 | TACAAAAAAGAAGATATTCAAACAAAAACAAAAAAA [CACACA_negctrl_site1126] | 9.62
49 | CAATACTATTATTATAGTACGTATAAAATTATATAT [XGTACX_site4950] | 9.26
50 | TATCATAATAGACACAGTACATATATGTCTTAAATT [XGTACX_site8775] | 9.26
51 | TATATATATATGCTACGTACATATATATTATATATA [XGTACX_site7894] | 9.22
52 | GTATTCTTCTCTCCGTGTACATATATATGTATATAT [XGTACX_site803] | 9.67
53 | AACATTTTTAGATTATATTATTAAATAAGTAACTGC [XGTACX_negctrl_site326] | 9.19
54 | AGATATATATTTTATTGTACACATTAAAGTATAAAA [XGTACX_site7194] | 9.17
55 | AACACTTTAATTTATGCACACATATGGAACAACAGC [CACACA_site8241] | 9.71
56 | AAGTTTTTTATTTTTTGTACATAAAAAATAATAATT [XGTACX_site1755] | 8.92
